This is an account of results in the BET-seq Pho4 binding data (Le et al. 2018).

This is one part of the list. These are noisy estimates, calculated here from bound and input reads.

The target in this test is T1, Pho4 (S. cerevisiae) (UniProt P07270).
T1 sequence: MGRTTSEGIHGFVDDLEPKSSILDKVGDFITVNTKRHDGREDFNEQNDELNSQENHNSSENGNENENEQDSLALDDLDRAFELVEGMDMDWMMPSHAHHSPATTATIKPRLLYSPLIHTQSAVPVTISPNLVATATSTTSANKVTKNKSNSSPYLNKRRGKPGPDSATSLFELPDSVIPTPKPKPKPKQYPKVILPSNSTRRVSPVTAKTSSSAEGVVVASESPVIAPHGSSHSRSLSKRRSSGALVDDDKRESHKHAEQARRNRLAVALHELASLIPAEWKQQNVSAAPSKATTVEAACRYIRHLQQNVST
In words: relative binding free energy (BET-seq); higher = weaker binding. The settings on record: reference: library average.
AGTGGCACGTGTATAT: the “relative binding free energy” value is -0.01 kcal/mol.

Take TTTAGCACGTGTTTTG: the “relative binding free energy” value is -0.1 kcal/mol.

Turning to GTGGGCACGTGGACAG, the “relative binding free energy” value is -0.14 kcal/mol.

With AAGTACACGTGTATGT, the “relative binding free energy” value is -0.16 kcal/mol.

Turning to TGGTGCACGTGGCGGG, the “relative binding free energy” value was -0.04 kcal/mol.

For AAGTGCACGTGCTGTG, the “relative binding free energy” value is -0.04 kcal/mol.

As for CGTGACACGTGTTGTA, the “relative binding free energy” value was -0.05 kcal/mol.

As for GAAGACACGTGTGTTG, the “relative binding free energy” value was -0.14 kcal/mol.

Regarding TTTTTCACGTGTACTT, the “relative binding free energy” value came to 0.27 kcal/mol.

As to TTTAACACGTGGGGAT, the “relative binding free energy” value was -0.01 kcal/mol.

Regarding ATAGACACGTGAGGGA, the “relative binding free energy” value worked out at 0.23 kcal/mol.

Consider GTGGCCACGTGCGTGA, for which the “relative binding free energy” value is -0.07 kcal/mol.

On to AAGTGCACGTGCCTGG, for which the “relative binding free energy” value is -0.12 kcal/mol.

For the sequence GGAGGCACGTGACTGT, the “relative binding free energy” value worked out at 0.11 kcal/mol.

GGTTTCACGTGCCGGG: the “relative binding free energy” value was determined as 0.27 kcal/mol.

On to TTTCGCACGTGGGCTT, for which the “relative binding free energy” value is -0.21 kcal/mol.

Turning to TTGTTCACGTGCTGAA, the “relative binding free energy” value is 0.12 kcal/mol.

For the sequence TACGTCACGTGTTGCT, the “relative binding free energy” value turned out to be 0.06 kcal/mol.

In the case of GAGTCCACGTGATGTG, the “relative binding free energy” value stood at 0.23 kcal/mol.

On to GAAGGCACGTGATGCG, for which the “relative binding free energy” value came out at 0 kcal/mol.

Regarding AATTGCACGTGTTGGT, the “relative binding free energy” value was found to be 0.11 kcal/mol.

Take ATGAACACGTGGAATG: the “relative binding free energy” value was 0.11 kcal/mol.

For the sequence TGTTTCACGTGGAGAT, the “relative binding free energy” value is 0.19 kcal/mol.

On to TCGTGCACGTGCGAGT, for which the “relative binding free energy” value was -0.11 kcal/mol.

For the sequence TGTGCCACGTGCGGGC, the “relative binding free energy” value is -0.11 kcal/mol.

In the case of TTTGTCACGTGTGTAT, the “relative binding free energy” value is 0.17 kcal/mol.

In the case of GGTTGCACGTGGTCTT, the “relative binding free energy” value is -0.08 kcal/mol.

On to AGGTTCACGTGAGTAT, for which the “relative binding free energy” value is 0.41 kcal/mol.

For the sequence TGAGTCACGTGGTTGT, the “relative binding free energy” value amounted to 0.13 kcal/mol.

With AGTTTCACGTGAGGCG, the “relative binding free energy” value turned out to be 0.31 kcal/mol.

As for AGAGTCACGTGGTGGC, the “relative binding free energy” value came out at 0.08 kcal/mol.

Regarding ATGGGCACGTGAGGCA, the “relative binding free energy” value amounted to 0.07 kcal/mol.

With ATTTACACGTGGCATG, the “relative binding free energy” value amounted to 0.06 kcal/mol.

As to GAGCACACGTGGTGTG, the “relative binding free energy” value was -0.1 kcal/mol.

In the case of ATTTGCACGTGGGACA, the “relative binding free energy” value was -0.09 kcal/mol.

AAAGTCACGTGAGGAT: the “relative binding free energy” value is 0.27 kcal/mol.

On to TTTGTCACGTGCGGAG, for which the “relative binding free energy” value came to 0.1 kcal/mol.

On to TGGGCCACGTGTATGC, for which the “relative binding free energy” value is 0.04 kcal/mol.

Turning to GTTGTCACGTGTCGTG, the “relative binding free energy” value was determined as 0.09 kcal/mol.

For the sequence GTTTGCACGTGCTTTA, the “relative binding free energy” value was 0 kcal/mol.

Regarding AAGGTCACGTGACGGT, the “relative binding free energy” value was found to be 0.27 kcal/mol.

With GTGTGCACGTGAAGAA, the “relative binding free energy” value turned out to be 0.15 kcal/mol.

Turning to GCGGTCACGTGAGGAT, the “relative binding free energy” value came to 0.33 kcal/mol.

CTTTGCACGTGGGGGT: the “relative binding free energy” value was -0.15 kcal/mol.

GATTGCACGTGGGTCT: the “relative binding free energy” value is -0.13 kcal/mol.

Take TGTTGCACGTGTAAAG: the “relative binding free energy” value was found to be 0.07 kcal/mol.

As for TGGGGCACGTGGCCGG, the “relative binding free energy” value is -0.26 kcal/mol.

As to TTTTTCACGTGGCTGA, the “relative binding free energy” value came out at 0.16 kcal/mol.

For TGGTGCACGTGCTAGG, the “relative binding free energy” value is -0.06 kcal/mol.

GAATGCACGTGAGAGT: the “relative binding free energy” value was 0.22 kcal/mol.

For TCGTGCACGTGGTCGG, the “relative binding free energy” value came out at 0 kcal/mol.

As to TTTGTCACGTGTAAAG, the “relative binding free energy” value amounted to 0.12 kcal/mol.

As to TTGGACACGTGATCTT, the “relative binding free energy” value amounted to 0.14 kcal/mol.

For the sequence TATTTCACGTGTCTGA, the “relative binding free energy” value was 0.26 kcal/mol.

In the case of GTCTACACGTGTGGGT, the “relative binding free energy” value was found to be 0.19 kcal/mol.

As to GTGCGCACGTGGGCCG, the “relative binding free energy” value is -0.14 kcal/mol.

In the case of TAGAGCACGTGGGGCA, the “relative binding free energy” value was -0.15 kcal/mol.

As to TACTTCACGTGGGTAT, the “relative binding free energy” value worked out at 0.13 kcal/mol.

As for TTAGTCACGTGTGTGG, the “relative binding free energy” value was 0.2 kcal/mol.

As to GGGTTCACGTGTAAGG, the “relative binding free energy” value came to 0.35 kcal/mol.

For the sequence ACCAGCACGTGGGGGG, the “relative binding free energy” value is -0.31 kcal/mol.

On to ATTCACACGTGGTGTA, for which the “relative binding free energy” value was -0.03 kcal/mol.

For TGAATCACGTGTTTTA, the “relative binding free energy” value amounted to 0.06 kcal/mol.

AGTTACACGTGGGCAG: the “relative binding free energy” value was -0.01 kcal/mol.

For GAAAGCACGTGAAAGG, the “relative binding free energy” value was 0.39 kcal/mol.

As to GAGTTCACGTGGTCGA, the “relative binding free energy” value worked out at 0.4 kcal/mol.

Take AGGCACACGTGTCGGG: the “relative binding free energy” value was found to be 0.07 kcal/mol.

For GAGGTCACGTGTACTG, the “relative binding free energy” value is 0.16 kcal/mol.

On to TTTAGCACGTGTGGAG, for which the “relative binding free energy” value was -0.02 kcal/mol.

As to GTGTGCACGTGTTCGC, the “relative binding free energy” value amounted to 0.02 kcal/mol.

With AGGGGCACGTGTTGAC, the “relative binding free energy” value was -0.21 kcal/mol.

GGTTACACGTGTTCTT: the “relative binding free energy” value was 0.1 kcal/mol.

Take CTGGGCACGTGTCGTT: the “relative binding free energy” value is -0.04 kcal/mol.

Regarding TTGGTCACGTGGTTGC, the “relative binding free energy” value came to 0.1 kcal/mol.

Regarding TGATTCACGTGCGGGG, the “relative binding free energy” value was 0.22 kcal/mol.

For ATTGCCACGTGAGTGG, the “relative binding free energy” value stood at 0.13 kcal/mol.

Turning to ATGTTCACGTGGCTAG, the “relative binding free energy” value was found to be 0.17 kcal/mol.

TAAGGCACGTGTTTCG: the “relative binding free energy” value was -0.07 kcal/mol.

TAGGCCACGTGTTTGG: the “relative binding free energy” value is -0.15 kcal/mol.

On to AGTTGCACGTGTATGC, for which the “relative binding free energy” value was -0.06 kcal/mol.

For the sequence AATATCACGTGTTGCT, the “relative binding free energy” value amounted to 0.1 kcal/mol.

On to GTAGGCACGTGAAAGT, for which the “relative binding free energy” value is 0.17 kcal/mol.

For the sequence TAGGACACGTGTGAGT, the “relative binding free energy” value turned out to be 0.15 kcal/mol.

With TCATACACGTGGGTTA, the “relative binding free energy” value is -0.02 kcal/mol.

Turning to AGAGGCACGTGTGTAT, the “relative binding free energy” value is -0.05 kcal/mol.

GCTGTCACGTGTGGTA: the “relative binding free energy” value was found to be 0.16 kcal/mol.

As for TGGGACACGTGTTATC, the “relative binding free energy” value was determined as 0.11 kcal/mol.

For TTTGACACGTGGAGAG, the “relative binding free energy” value came to 0.07 kcal/mol.

With GGGTTCACGTGGATAG, the “relative binding free energy” value amounted to 0.25 kcal/mol.

Consider TTGTGCACGTGTTTTA, for which the “relative binding free energy” value was 0.07 kcal/mol.

With TGTTACACGTGATTCT, the “relative binding free energy” value turned out to be 0.14 kcal/mol.

Regarding TTGCGCACGTGTTATT, the “relative binding free energy” value was -0.02 kcal/mol.

For TGATGCACGTGCTTTT, the “relative binding free energy” value is -0.14 kcal/mol.

TGTAGCACGTGGCATT: the “relative binding free energy” value was -0.28 kcal/mol.

As to GTGGGCACGTGTGAAG, the “relative binding free energy” value is -0.04 kcal/mol.

For AGGGGCACGTGGCTGA, the “relative binding free energy” value was -0.21 kcal/mol.

As to TTTGACACGTGATCTG, the “relative binding free energy” value was determined as 0.11 kcal/mol.

For the sequence TTTGGCACGTGGTCGT, the “relative binding free energy” value is -0.13 kcal/mol.

In the case of TAGGACACGTGTGCTA, the “relative binding free energy” value amounted to 0.13 kcal/mol.

Take TGTTTCACGTGGTCAG: the “relative binding free energy” value stood at 0.15 kcal/mol.

On to ATGGTCACGTGTACTT, for which the “relative binding free energy” value came out at 0.11 kcal/mol.

Regarding TGGGACACGTGTGACT, the “relative binding free energy” value worked out at 0.18 kcal/mol.

With GTCGGCACGTGAGGTA, the “relative binding free energy” value came to 0.13 kcal/mol.

Consider TATTCCACGTGTGATT, for which the “relative binding free energy” value was 0.16 kcal/mol.

In the case of CGGAGCACGTGGAGGA, the “relative binding free energy” value is -0.03 kcal/mol.

Turning to TGGAGCACGTGGCTGG, the “relative binding free energy” value was -0.26 kcal/mol.

Consider TGCTTCACGTGTAAAG, for which the “relative binding free energy” value was 0.28 kcal/mol.

Regarding TCGTACACGTGGGTGT, the “relative binding free energy” value was -0.06 kcal/mol.

On to TCGAACACGTGAGTGT, for which the “relative binding free energy” value was 0.26 kcal/mol.

As for TTTGGCACGTGGGTAT, the “relative binding free energy” value was -0.2 kcal/mol.

Regarding CGTGTCACGTGGTGCT, the “relative binding free energy” value worked out at 0.04 kcal/mol.

Take ACTGGCACGTGCGTGT: the “relative binding free energy” value was -0.16 kcal/mol.

In the case of CTTGACACGTGGATGT, the “relative binding free energy” value is 0.03 kcal/mol.

Turning to CGTGGCACGTGTCAGG, the “relative binding free energy” value was -0.08 kcal/mol.

Consider TTTAGCACGTGTGTAA, for which the “relative binding free energy” value was -0.1 kcal/mol.
